From the supplement of paper PMC12217912 come the findings set out here.

This is one part of the list. Sequences were assembled here from the parent chain. Inactive controls read about 0.05.

First the molecules themselves.
B1: TEV protease; numbered along this chain (parent)
chain: MGESLFKGPRDYNPISSSICHLTNESDGHTTSLYGIGFGPFIITNKHLFRRNNGTLVVQSLHGVFKVKDTTTLQQHLVDGRDMIIIRMPKDFPPFPQKLKFREPQREERICLVTTNFQTKSMSSMVSDTSCTFPSGDGIFWKHWIQTKDGQCGSPLVSTRDGFIVGIHSASNFTNTNNYFTSVPKNFMELLTNQEAQQWVSGWRLNADSVLWGGHKVFMVKPEEPFQPVKEATQL

The variants in this assay derive from B1. Description: raw area under fraction-flipped curve 0-4 h after induction (AUC4h, not background-subtracted), DNA-recorder readout of cleavage of the substrate (dimensionless); higher = more cleavage of the substrate by the protease variant. The settings on record: temperature: 34 °C; time window: 0-4 h after rhamnose induction. How it is done: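 In vivo DNA recorder in E. coli TOP10(DE3) ΔrhaA at 34 °C. Each TEVp single-site mutant (parent TEVp 0) is paired with a single-site variant of the 7-mer TEVs (canonical ENLYFQ|S). The substrate sits between flexible linkers in a Bxb1-sfGFP-TEVs-SsrA fusion, so cleavage stabilises Bxb1 and speeds flipping of a recombination array, read by NGS. The value is the raw area under the fraction-flipped curve over 0-4 h after rhamnose induction (AUC4h), with ≥20 reads per time point. It is not background-subtracted; inactive controls average about 0.047.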
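Further: Bxb1 expression induced with 0.2% (w/v) L-rhamnose at OD600 near 0.5, cultures sampled hourly, flipped fraction per protease–substrate barcode pair counted by paired-end Illumina sequencing.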

For MGESLFKGPRDYNPISSSICHLTNESDGHTTSLYGIGFGPFIITNKHLFRRNNGTLVVQSLHGVFKVKDTTTLQQHLVDGRDMIIIRMPKDFPPFPQKLKFREPQREERICLVTTNFQTKSMSSMVSDTSCTFPSGDGIFWKHWIQTKDGQCGSPLVSTRDGFIVGIHSASNFTNTNNYFTSVPKNFMELLTNQEAQQWVSGWMLNADSVLWGGHKVFMVKPEEPFQPVKEATQL [R204M], the “area with substrate CNLYFQS” value was 0.0675, the “area with substrate DNLYFQS” value came to 0.0736, the “area with substrate FNLYFQS” value is 0.0625 and the “area with substrate GNLYFQS” value came out at 0.0692. The “area with substrate HNLYFQS” value came to 0.0548, the “area with substrate INLYFQS” value came to 0.0671, the “area with substrate KNLYFQS” value was 0.0726 and the “area with substrate LNLYFQS” value was determined as 0.0674. Besides, the “area with substrate MNLYFQS” value worked out at 0.0595, the “area with substrate NNLYFQS” value amounted to 0.0752, the “area with substrate PNLYFQS” value amounted to 0.0714 and the “area with substrate SNLYFQS” value worked out at 0.0518. In addition, the “area with substrate TNLYFQS” value was 0.0795 and the “area with substrate WNLYFQS” value was determined as 0.0533.

Consider MGESLFKGPRDYNPISSSICHLTNESDGHTTSLYGIGFGPFIITNKHLFRRNNGTLVVQSLHGVFKVKDTTTLQQHLVDGRDMIIIRMPKDFPPFPQKLKFREPQREERICLVTTNFQTKSMSSMVSDTSCTFPSGDGIFWKHWIQTKDGQCGSPLVSTRDGFIVGIHSASNFTNTNNYFTSVPKNFMELLTNQEAQQWVSGWRLNADSVLWGGHKVFMVKPEEPFQPVKEAQQL [T233Q], for which the “area with substrate CNLYFQS” value was found to be 0.0806, the “area with substrate DNLYFQS” value was 0.0914, the “area with substrate HNLYFQS” value turned out to be 0.064 and the “area with substrate KNLYFQS” value turned out to be 0.0702. Besides, the “area with substrate LNLYFQS” value came to 0.0673, the “area with substrate NNLYFQS” value was determined as 0.0681, the “area with substrate TNLYFQS” value amounted to 0.0651 and the “area with substrate VNLYFQS” value worked out at 0.0918. The “area with substrate YNLYFQS” value was 0.0527.

Take MGESLFKGPRDYNPISSSICHLTNESDGHTTSLYGIGFGPFIITNKHLFRRNNGTLVVQSLHGVFKVKDTTTLQQHLVDGRDMIIIRMPKDFPPFPQKLKFREPQREERICLVTTNFQTKSMSSMVIDTSCTFPSGDGIFWKHWIQTKDGQCGSPLVSTRDGFIVGIHSASNFTNTNNYFTSVPKNFMELLTNQEAQQWVSGWRLNADSVLWGGHKVFMVKPEEPFQPVKEATQL [S127I]: the “area with substrate CNLYFQS” value worked out at 0.0675, the “area with substrate DNLYFQS” value was 0.106, the “area with substrate FNLYFQS” value was determined as 0.0632 and the “area with substrate GNLYFQS” value was 0.0647. For the same variant, the “area with substrate HNLYFQS” value was 0.0689, the “area with substrate INLYFQS” value was found to be 0.0676, the “area with substrate KNLYFQS” value worked out at 0.0793 and the “area with substrate LNLYFQS” value was determined as 0.0654. Also, the “area with substrate MNLYFQS” value was found to be 0.0606, the “area with substrate NNLYFQS” value came out at 0.0648, the “area with substrate PNLYFQS” value came out at 0.0654 and the “area with substrate QNLYFQS” value is 0.0546. In addition, the “area with substrate SNLYFQS” value was determined as 0.0629, the “area with substrate TNLYFQS” value came to 0.0681, the “area with substrate VNLYFQS” value was determined as 0.0511 and the “area with substrate WNLYFQS” value was determined as 0.0674. The “area with substrate YNLYFQS” value turned out to be 0.0452.

In the case of MGESLFKGPRDYNPISSSICHLTNESDGHTTSLYGIGFGPFIITNKHLFRRNNGTLVVQSLHGVFKVKDTTTLQQHLVDGRDMIIIRMPKDFPPFPQKLKFREPQREERICLVTTNFQTKSMSSMVSDTSCTFPSGDGIFWKHWIQTKDGQCGSPLVSTRDRFIVGIHSASNFTNTNNYFTSVPKNFMELLTNQEAQQWVSGWRLNADSVLWGGHKVFMVKPEEPFQPVKEATQL [G162R], the “area with substrate CNLYFQS” value is 0.0577, the “area with substrate DNLYFQS” value was determined as 0.0403, the “area with substrate GNLYFQS” value was 0.0627 and the “area with substrate HNLYFQS” value turned out to be 0.0598. The “area with substrate INLYFQS” value is 0.0565, the “area with substrate KNLYFQS” value was determined as 0.0294, the “area with substrate LNLYFQS” value is 0.0788 and the “area with substrate MNLYFQS” value was 0.07. The “area with substrate PNLYFQS” value turned out to be 0.0783, the “area with substrate RNLYFQS” value is 0.0744, the “area with substrate SNLYFQS” value is 0.0564 and the “area with substrate VNLYFQS” value was 0.0583. In addition, the “area with substrate WNLYFQS” value was found to be 0.0642 and the “area with substrate YNLYFQS” value turned out to be 0.0755.

On to MGESLFKGPRDYNPISSSICHLTNESDGHTTSLYGIGFGPFIITNKHLFRRNNGTLVVQSLHGVFKVKDTTTLQQHLVDGRDMIIIRMPKDFPPFPQKLKFREPQREERICLVTTNFQTKSMSSMVSDTSCTFPSGDGIFWKHWIQTKDGQCGSPLVSTRDFFIVGIHSASNFTNTNNYFTSVPKNFMELLTNQEAQQWVSGWRLNADSVLWGGHKVFMVKPEEPFQPVKEATQL [G162F], for which the “area with substrate CNLYFQS” value came out at 0.0715, the “area with substrate DNLYFQS” value was 0.074, the “area with substrate FNLYFQS” value was 0.0593 and the “area with substrate GNLYFQS” value amounted to 0.0569. Also, the “area with substrate HNLYFQS” value was 0.0549, the “area with substrate INLYFQS” value was found to be 0.0548, the “area with substrate KNLYFQS” value amounted to 0.047 and the “area with substrate LNLYFQS” value stood at 0.0546. Besides, the “area with substrate MNLYFQS” value was found to be 0.0574, the “area with substrate NNLYFQS” value worked out at 0.0639, the “area with substrate PNLYFQS” value amounted to 0.0654 and the “area with substrate QNLYFQS” value is 0.0748. In addition, the “area with substrate SNLYFQS” value amounted to 0.0682, the “area with substrate TNLYFQS” value was 0.0639, the “area with substrate VNLYFQS” value came to 0.0575 and the “area with substrate WNLYFQS” value amounted to 0.0503. Also, the “area with substrate YNLYFQS” value came out at 0.0566.

For the variant MGESLFKGPRDYNPISSSICHLTNESDGHTTSLYGIGFGPFIITNKHLFRRNNGTLVVQSLHGVFKVKDTTTLQQHLVDGRDMIIIRMPKDFPPFPQKLKFREPIREERICLVTTNFQTKSMSSMVSDTSCTFPSGDGIFWKHWIQTKDGQCGSPLVSTRDGFIVGIHSASNFTNTNNYFTSVPKNFMELLTNQEAQQWVSGWRLNADSVLWGGHKVFMVKPEEPFQPVKEATQL [Q105I], the “area with substrate CNLYFQS” value came to 0.0745, the “area with substrate DNLYFQS” value stood at 0.0894, the “area with substrate GNLYFQS” value was found to be 0.0675 and the “area with substrate HNLYFQS” value is 0.0708. Moreover, the “area with substrate KNLYFQS” value is 0.0748, the “area with substrate LNLYFQS” value came to 0.0411, the “area with substrate MNLYFQS” value worked out at 0.07 and the “area with substrate NNLYFQS” value amounted to 0.0824. The “area with substrate PNLYFQS” value came to 0.029, the “area with substrate RNLYFQS” value was 0.0714, the “area with substrate SNLYFQS” value amounted to 0.0572 and the “area with substrate TNLYFQS” value worked out at 0.0623. Also, the “area with substrate VNLYFQS” value came to 0.0681.

With MGESLFKGPRDYNPISSSICHLTNESDGHTTSLYGIGFGPFIITNKHLFRRNNGTLVVQSLHGVFKVKDTTTLQQHLVDGRDMIIIRMPKDFPPFPQKLKFREPLREERICLVTTNFQTKSMSSMVSDTSCTFPSGDGIFWKHWIQTKDGQCGSPLVSTRDGFIVGIHSASNFTNTNNYFTSVPKNFMELLTNQEAQQWVSGWRLNADSVLWGGHKVFMVKPEEPFQPVKEATQL [Q105L], the “area with substrate CNLYFQS” value was 0.0801, the “area with substrate DNLYFQS” value is 0.103, the “area with substrate FNLYFQS” value amounted to 0.0613 and the “area with substrate LNLYFQS” value turned out to be 0.0741. Also, the “area with substrate TNLYFQS” value turned out to be 0.0634, the “area with substrate VNLYFQS” value is 0.0615, the “area with substrate WNLYFQS” value came out at 0.0501 and the “area with substrate YNLYFQS” value was 0.0626.

For the variant MGESLFKGPRDYNPISSSICHLTNESDGHTTSLYGIGFGPFIITNKHLFRRNNGTLVVQSLHGVFKVKDTTTLQQHLVDGRDMIIIRMPKDFPPFPQKLKFREPQREERICLVTTNFQTKSMSSMVSDTSCTFPSGDGIFWKHWIQTKDGQCGSPLVSTRDGFIVFIHSASNFTNTNNYFTSVPKNFMELLTNQEAQQWVSGWRLNADSVLWGGHKVFMVKPEEPFQPVKEATQL [G166F], the “area with substrate CNLYFQS” value stood at 0.0547, the “area with substrate DNLYFQS” value was 0.055, the “area with substrate FNLYFQS” value was 0.0688 and the “area with substrate INLYFQS” value turned out to be 0.0519. Moreover, the “area with substrate LNLYFQS” value is 0.0488, the “area with substrate MNLYFQS” value amounted to 0.0458, the “area with substrate NNLYFQS” value amounted to 0.0313 and the “area with substrate PNLYFQS” value was 0.0338. In addition, the “area with substrate SNLYFQS” value came to 0.0578, the “area with substrate TNLYFQS” value was 0.0516, the “area with substrate WNLYFQS” value came to 0.0512 and the “area with substrate YNLYFQS” value is 0.0569.

As for MGESLFKGPRDYNPISSSICHLTNESDGHTTSLYGIGFGPFIITNKHLFRRNNGTLVVQSLHGVFKVKDTTTLQQHLVDGRDMIIIRMPKDFPPFPQKLKFREPQREERICLVTTNFQTKSMSSMVSDTSCTFWSGDGIFWKHWIQTKDGQCGSPLVSTRDGFIVGIHSASNFTNTNNYFTSVPKNFMELLTNQEAQQWVSGWRLNADSVLWGGHKVFMVKPEEPFQPVKEATQL [P134W], the “area with substrate CNLYFQS” value came to 0.049, the “area with substrate DNLYFQS” value was found to be 0.0414, the “area with substrate HNLYFQS” value came to 0.0297 and the “area with substrate INLYFQS” value came out at 0.0659. Further, the “area with substrate LNLYFQS” value is 0.0464, the “area with substrate PNLYFQS” value stood at 0.0332, the “area with substrate RNLYFQS” value stood at 0.0447 and the “area with substrate SNLYFQS” value was found to be 0.0477. Further, the “area with substrate TNLYFQS” value was 0.0595, the “area with substrate WNLYFQS” value was 0.0501 and the “area with substrate YNLYFQS” value was found to be 0.0417.
